Experimental data: PMC10526831, “SUPPRESSOR OF MAX2 LIKE 6, 7, and 8 Interact with DDB1 BINDING WD REPEAT DOMAIN HYPERSENSITIVE TO ABA DEFICIENT 1 to Regulate the Drought Tolerance and Target SUCROSE NONFERMENTING 1 RELATED PROTEIN K”
No constants are given. Whether binding was seen depends on the method and setting. In cells and extracts the contact can be indirect. Some binding calls cover weakened binding; strength is not graded here. Tags and fused reporters may be left off the sequences shown.

Assays:
Experiment in all cases: pull-down; GST-SMXL6,7,8 supernatant bound to GSH beads as bait (PBS, 1% Triton X-100, 1 mM PMSF, 1% BSA, 4 h, 4 °C), washed; extract from cells producing His-DWA1 added as prey for 1 h; ten washes; anti-His and anti-GST immunoblot; the legend says purified proteins were used; only the target purified
GST-SMXL8 = target: T1, GST-SMXL8 (Arabidopsis thaliana, UniProt F4IGZ2 1-910)
T1 sequence: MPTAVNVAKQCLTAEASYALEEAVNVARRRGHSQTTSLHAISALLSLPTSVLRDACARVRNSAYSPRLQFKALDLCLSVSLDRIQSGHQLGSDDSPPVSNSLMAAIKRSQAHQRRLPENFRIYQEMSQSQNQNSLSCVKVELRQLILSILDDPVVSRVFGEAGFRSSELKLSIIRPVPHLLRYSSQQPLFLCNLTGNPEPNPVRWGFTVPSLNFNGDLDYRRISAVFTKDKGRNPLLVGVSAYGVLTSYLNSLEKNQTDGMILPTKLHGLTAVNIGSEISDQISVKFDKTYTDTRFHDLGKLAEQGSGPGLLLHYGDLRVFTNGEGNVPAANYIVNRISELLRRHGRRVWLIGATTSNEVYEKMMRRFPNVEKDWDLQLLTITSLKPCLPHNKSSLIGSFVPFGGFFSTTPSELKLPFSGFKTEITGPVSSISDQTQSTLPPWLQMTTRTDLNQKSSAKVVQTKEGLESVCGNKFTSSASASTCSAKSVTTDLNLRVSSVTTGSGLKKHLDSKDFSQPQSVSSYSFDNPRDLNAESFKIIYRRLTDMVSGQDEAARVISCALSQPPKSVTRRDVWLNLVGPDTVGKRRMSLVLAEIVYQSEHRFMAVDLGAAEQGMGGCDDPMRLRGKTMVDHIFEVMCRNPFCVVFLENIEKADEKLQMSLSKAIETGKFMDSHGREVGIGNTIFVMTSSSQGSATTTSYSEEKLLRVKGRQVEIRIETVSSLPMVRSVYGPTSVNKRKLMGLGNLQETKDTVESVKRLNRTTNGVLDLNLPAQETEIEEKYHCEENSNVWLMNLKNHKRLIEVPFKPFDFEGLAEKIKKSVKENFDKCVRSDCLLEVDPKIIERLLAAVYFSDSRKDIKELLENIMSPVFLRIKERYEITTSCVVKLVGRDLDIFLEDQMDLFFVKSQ

GST-SMXL7 = target: T2, GST-SMXL7 (Arabidopsis thaliana, UniProt O80875 1-1002)
T2 sequence: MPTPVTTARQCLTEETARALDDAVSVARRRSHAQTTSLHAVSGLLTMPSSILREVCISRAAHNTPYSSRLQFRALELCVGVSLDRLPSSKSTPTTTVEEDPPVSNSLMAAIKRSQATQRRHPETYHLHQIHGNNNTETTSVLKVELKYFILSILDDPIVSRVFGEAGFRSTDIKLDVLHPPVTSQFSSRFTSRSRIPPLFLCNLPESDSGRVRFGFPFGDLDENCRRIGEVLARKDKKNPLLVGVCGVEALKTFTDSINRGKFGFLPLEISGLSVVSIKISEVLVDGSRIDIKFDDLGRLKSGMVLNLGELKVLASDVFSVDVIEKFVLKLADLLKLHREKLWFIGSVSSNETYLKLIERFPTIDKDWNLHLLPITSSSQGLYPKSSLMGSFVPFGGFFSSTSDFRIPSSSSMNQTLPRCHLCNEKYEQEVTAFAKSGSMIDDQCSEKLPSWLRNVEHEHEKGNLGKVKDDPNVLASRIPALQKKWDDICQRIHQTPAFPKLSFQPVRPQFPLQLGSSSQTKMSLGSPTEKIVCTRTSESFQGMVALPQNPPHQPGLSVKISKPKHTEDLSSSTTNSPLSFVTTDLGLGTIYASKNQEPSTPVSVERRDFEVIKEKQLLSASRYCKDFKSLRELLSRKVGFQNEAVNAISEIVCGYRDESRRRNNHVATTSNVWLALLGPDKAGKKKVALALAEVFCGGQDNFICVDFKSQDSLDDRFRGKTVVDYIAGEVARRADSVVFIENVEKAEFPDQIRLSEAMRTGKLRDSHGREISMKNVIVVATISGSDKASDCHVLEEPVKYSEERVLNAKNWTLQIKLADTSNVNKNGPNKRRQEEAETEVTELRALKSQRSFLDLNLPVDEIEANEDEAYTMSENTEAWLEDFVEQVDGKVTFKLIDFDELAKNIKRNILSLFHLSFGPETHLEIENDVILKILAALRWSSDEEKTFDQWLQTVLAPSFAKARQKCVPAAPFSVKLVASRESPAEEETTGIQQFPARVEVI

GST-SMXL6 = target: T3, GST-SMXL6 (Arabidopsis thaliana, UniProt Q9LML2 1-979)
T3 sequence: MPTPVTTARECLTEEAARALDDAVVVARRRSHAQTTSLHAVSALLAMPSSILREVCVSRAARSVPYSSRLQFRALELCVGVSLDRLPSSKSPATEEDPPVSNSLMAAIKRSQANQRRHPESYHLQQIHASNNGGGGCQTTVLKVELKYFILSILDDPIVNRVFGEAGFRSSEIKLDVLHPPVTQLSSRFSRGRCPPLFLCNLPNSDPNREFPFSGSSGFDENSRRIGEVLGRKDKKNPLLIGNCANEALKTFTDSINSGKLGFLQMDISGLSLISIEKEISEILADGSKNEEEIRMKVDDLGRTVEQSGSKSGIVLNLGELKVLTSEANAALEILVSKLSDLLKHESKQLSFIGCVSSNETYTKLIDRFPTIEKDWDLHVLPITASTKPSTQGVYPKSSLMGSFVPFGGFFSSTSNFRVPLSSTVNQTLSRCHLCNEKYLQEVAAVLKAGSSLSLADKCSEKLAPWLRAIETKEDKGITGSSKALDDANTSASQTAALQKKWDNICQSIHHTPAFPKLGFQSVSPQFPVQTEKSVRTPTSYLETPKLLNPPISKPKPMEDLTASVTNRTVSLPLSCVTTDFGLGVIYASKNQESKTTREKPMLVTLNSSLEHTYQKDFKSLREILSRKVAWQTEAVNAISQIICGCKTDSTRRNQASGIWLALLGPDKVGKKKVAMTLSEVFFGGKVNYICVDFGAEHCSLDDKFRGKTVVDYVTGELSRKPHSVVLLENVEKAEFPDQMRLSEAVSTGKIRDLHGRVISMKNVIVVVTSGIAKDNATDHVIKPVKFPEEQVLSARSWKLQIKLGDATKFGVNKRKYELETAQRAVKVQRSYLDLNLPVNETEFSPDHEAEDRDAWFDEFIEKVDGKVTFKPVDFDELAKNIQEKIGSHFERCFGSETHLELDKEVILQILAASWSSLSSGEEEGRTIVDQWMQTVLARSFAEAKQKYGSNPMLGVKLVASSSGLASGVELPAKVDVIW

Measured: binding

B1: His-DWA1 (protein, UniProt Q8L4M1 1-367)
chain: MYGDATNWNEDEYRESILKEREIETRTVFRTAWAPPARISNPDAFVVASSDGTLAFHSLNSLVSQSASFGYSKGQDVMVAEPERVVRAHEGPAYDVKFYGEDEDALLLSCGDDGRVRGWKWREFAESDVSLHLKENHLKPLLELINPQHKGPWGALSPMPEINAMSVDPQSGSVFTAAGDSCAYCWDVESGKIKMTFKGHSDYLHTVVSRSSASQILTGSEDGTARIWDCKTGKCVKVIGSQDKKSRLRVSSMALDGSESWLVCGQGKNLALWNLPASECVQTIPIPAHVQDVMFDEKQILTVGAEPLLRRFDLNGALLSQIHCAPCSVFSISLHPAGVVAVGGYGGIVDVISQFGSHLCTFRSSSL
binds: all assays above
